According to PMC3199943, “Screening the MayBridge Rule of 3 Fragment Library for Compounds That Interact with the Trypanosoma brucei myo-Inositol-3-Phosphate Synthase and/or Show Trypanocidal Activity” (Molecular Biology International, 2011):

System: cultured bloodstream T. brucei (strain 427)
Test: microbe, parasite or virus in culture
Conditions: Trypanosoma brucei; for IC50: read-out: T. brucei ED50, ED50 ± SD (n = 4)
[1] = read-out: T. brucei Alamar Blue
[2] = read-out: T. brucei Alamar Blue (% survival)
[3] = read-out: T. brucei Alamar Blue, Supplementary Table 1, compound 0.5 mM, percentage of controls in the absence of compound, mean ± SD (n=3) or SE (n=2)

| SMILES | viability at 500 µM [1] | other results |
| --- | --- | --- |
| NC(=S)c1ccno1 [compound 86, isoxazole‐5‐carbothioamide] | 101 ± 3.2% |  |
| NC(=S)c1ccccc1 [compound 123, benzene‐1‐carbothioamide] | 107 ± 16.2% |  |
| O=C1Cc2ccccc2N1 [compound 99, indolin-2-one] | 37.3 ± 9.2% | viability at 500 µM [2]: 37.3 ± 9.2%; IC50: 216 ± 18 µM |
| OCc1ccc2[nH]cnc2c1 [compound 170, 1H‐benzimidazol‐5‐ylmethanol] | 98.8 ± 1.6% |  |
| c1ccc2c(c1)CCOC2 [compound 110, 3,4‐dihydro‐1H‐benzo[c]pyran] | 109.8 ± 0.6% |  |
| OCc1ccc(N2CCCC2)nc1 [compound 437, [6‐(1‐pyrrolidinyl)‐3‐pyridinyl]methanol] | 29.4 ± 4.1% |  |
| NCc1ccoc1 [compound 5, 3‐furylmethylamine] | 79.2 ± 7.9% |  |
| OCc1cc(-c2cccs2)on1 [compound 462, [5‐(2‐thienyl)‐3‐isoxazolyl]methanol] | 80.7 ± 24% |  |
| N#CCc1nc2ccccc2s1 [compound 387, 2‐(1,3‐benzothiazol‐2‐yl)acetonitrile] | 36 ± 8.3% |  |
| Cc1cccc2c1NCCC2 [compound 166, 8‐methyl‐1,2,3,4‐tetrahydroquinoline] | 55.8 ± 21.7% |  |
| Cc1ccc(C(=O)O)cc1Cl [compound 351, 3‐chloro‐4‐methylbenzoic acid] | 38 ± 12.2% |  |
| CC(=O)c1ccc(F)c(Cl)c1 [compound 367, 1‐(3‐chloro‐4‐fluorophenyl)ethan‐1‐one] | 101 ± 10.3% |  |
| CN(C)CCOc1ccc(C#N)cc1 [compound 542, 4‐[2‐(dimethylamino)ethoxy]benzonitrile] | 79.7 ± 7.3% |  |
| OCc1cc2cccnc2s1 [compound 311, thieno[2,3‐b]pyridin‐2‐ylmethanol] | 70.8 ± 9% |  |
| Cc1ncsc1C(=O)O [compound 145, 4‐Methyl‐thiazole‐5‐carboxylic acid] | 115 ± 9.7% |  |
| Cc1cc(C)on1 [compound 4, 3,5‐dimethylisoxazole] | 117 ± 5.1% |  |
| OCc1ccc(-c2ccsc2)cc1 [compound 545, (4‐thien‐3‐ylphenyl)methanol] | 60.7 ± 9.2% |  |
| OCc1cccc2c1OCC2 [compound 186, 2,3-Dihydrobenzo[b]furan-7-methanol] | 33.8 ± 5.2% | viability at 500 µM [2]: 33.8 ± 5.2%; IC50: 370 ± 40 µM |
| CC(=O)c1sccc1N [compound 133, 1‐(3‐amino‐2‐thienyl)ethan‐1‐one] | 56.3 ± 21.4% |  |
| O=C(O)c1ccccc1F [compound 129, 2‐fluorobenzoic acid] |  | viability at 500 µM [3]: 124 ± 7.6% |
| Cn1ccnc1CO [compound 34, (1‐methyl‐1H‐imidazol‐2‐yl)methanol] | 133 ± 1.6% |  |
| Nc1cccc(-c2cncnc2)c1 [compound 353, 3‐pyrimidin‐5‐ylaniline] | 69.2 ± 4.2% |  |
| Nc1ccc2[nH]ncc2c1 [compound 101, 1H‐indazol‐5‐amine] | 38.2 ± 11.6% |  |
| OCc1ccc2c(c1)OCO2 [compound 200, 1,3‐benzodioxol‐5‐ylmethanol] | 84.2 ± 5.9% |  |
| CNCc1ccc(-c2ccccn2)cc1 [compound 607, N‐methyl‐N‐(4‐pyridin‐2‐ylbenzyl)amine] | 32.8 ± 7.4% |  |
| Cc1cc(CO)nn1C [compound 76, (1,5‐dimethyl‐1H‐pyrazol‐3‐yl)methanol] | 85.4 ± 1.3% |  |

| SMILES | viability at 500 µM [1] | other results |
| --- | --- | --- |
| N#Cc1ccc(-c2ccco2)nc1 [compound 344, 6‐(2‐furyl)nicotinonitrile] | 40.4 ± 13.9% |  |
| CC(=O)c1ccc(S(C)(=O)=O)cc1 [compound 604, 1‐[4‐(methylsulfonyl)phenyl]ethan‐1‐one] | 109 ± 11.7% |  |
| OCC1COc2ccccc2C1 (stereo not drawn) [compound 300, 3,4‐dihydro‐2H‐chromen‐3‐ylmethanol] | 73.2 ± 12.1% |  |
| Cn1nc2ccccc2c1CO [compound 285, (2‐methyl‐2H‐indazol‐3‐yl)methanol] | 70.7 ± 13.2% |  |
| c1ccc(-c2cnco2)cc1 [compound 156, 5‐phenyl‐1,3‐oxazole] | 35.1 ± 3.8% |  |
| Fc1ccc(-n2cccc2)cc1 [compound 276, 1‐(4‐fluorophenyl)‐1H‐pyrrole] | 45.2 ± 16% |  |
| CCCCc1nc(CO)c[nH]1 [compound 223, (2‐butyl‐1H‐imidazol‐4‐yl)methanol] | 100 ± 6.7% |  |
| Nc1ccc(N2CCCCC2)cc1 [compound 413, 4‐piperidinoaniline] | 26 ± 4.8% |  |
| NC(=O)c1ccccc1Cl [compound 230, 2‐chlorobenzamide] | 96.7 ± 8.2% |  |
| O=C(O)c1ccccc1-c1cccnc1 [compound 613, 2‐pyrid‐3‐ylbenzoic acid] | 80.1 ± 7% |  |
| Cn1nc(-c2ccccc2)cc1N [compound 376, 1‐methyl‐3‐phenyl‐1H‐pyrazol‐5‐amine] | 62.2 ± 5.1% |  |
| Oc1ccc(F)cc1 [compound 29, 4‐fluorophenol] |  | viability at 500 µM [3]: 85.3 ± 12.3% |
| Cc1[nH]c2ccc(C(=O)O)cc2c1C [compound 537, 2,3‐dimethyl‐1H‐indole‐5‐carboxylic acid] | 85.3 ± 0.3% |  |
| COC(=O)c1cccc(C)c1 [compound 185, methyl 3‐methylbenzoate] | 110 ± 12.7% |  |
| O=C(O)c1ccccc1-c1ccco1 [compound 520, 2-(2-furyl)benzoic acid] | 35.4 ± 8.7% | viability at 500 µM [2]: 35.4 ± 8.7%; IC50: 76.1 ± 6 µM |
| OCc1ccncc1 [compound 18, 4‐pyridinylmethanol] | 101 ± 1.3% |  |
| CNCc1cccc(-c2ccncc2)c1 [compound 605, N‐methyl‐N‐(3‐pyridin‐4‐ylbenzyl)amine] | 37.4 ± 13.7% |  |
| O=C(O)c1ccc(-c2ccccc2)s1 [compound 649, 5‐phenylthiophene‐2‐carboxylic acid] | 71.2 ± 14.3% |  |
| Cc1nc(CCN)cs1 [compound 141, 2‐(2‐methyl‐1,3‐thiazol‐4‐yl)ethylamine] | 82.8 ± 0.9% |  |
| Nc1nc(-c2ccc(O)cc2)cs1 [compound 565, 4‐(2‐amino‐1,3‐thiazol‐4‐yl)phenol] |  | viability at 500 µM [3]: 48.7 ± 19.3% |
| Nc1ccc(Oc2ccccc2)nc1 [compound 507, 6‐phenoxy‐3‐pyridinamine] | 49.5 ± 6% |  |
| CNCc1ccc(Cl)cc1 [compound 231, N‐(4‐chlorobenzyl)‐N‐methylamine] | 86.3 ± 3.2% |  |
| Cc1csc(C(=O)O)c1 [compound 139, 4‐methylthiophene‐2‐carboxylic acid] | 121.9 ± 1.1% |  |
| CNCc1cccc(N2CCCCC2)c1 [compound 656, N‐methyl‐N‐(3‐piperidin‐1‐ylbenzyl)amine] | 28.2 ± 9.7% |  |
| N#Cc1c(N)cccc1F [compound 115, 2‐amino‐6‐fluorobenzonitrile] | 90 ± 9.9% |  |
| O=C(O)CCc1ccco1 [compound 131, 3‐(2‐furyl)propanoic acid] | 52.6 ± 15.5% |  |

| SMILES | viability at 500 µM [1] | other results |
| --- | --- | --- |
| NCc1ccc(C(F)(F)F)cc1 [compound 390, 4‐(trifluoromethyl)benzylamine] | 24 ± 4.6% |  |
| Cc1noc(N)c1C [compound 32, 3,4‐dimethylisoxazol‐5‐amine] | 96.2 ± 10.7% |  |
| OCc1csc(-c2ccccc2)n1 [compound 557, (2‐phenyl‐1,3‐thiazol‐4‐yl)methanol] | 64.1 ± 11.9% |  |
| O=C(O)c1cccc(-c2ccncc2)c1 [compound 614, 3‐pyrid‐4‐ylbenzoic acid] | 41.6 ± 12.5% |  |
| Nc1cc(F)ccc1-n1ccnc1 [compound 420, 5‐fluoro‐2‐(1H‐imidazol‐1‐yl)aniline] | 77.6 ± 18.8% |  |
| OCc1cc2ccccc2s1 [compound 301, 1‐benzothiophen‐2‐ylmethanol] | 68.5 ± 7.6% |  |
| OCc1cccc(-c2cncnc2)c1 [compound 504, (3‐pyrimidin‐5‐ylphenyl)methanol] | 87.8 ± 5.8% |  |
| Cc1cc(CO)c(-c2ccccc2)o1 [compound 522, (5-methyl-2-phenyl-3-furyl)methanol] | 45.4 ± 7.9% | viability at 500 µM [2]: 45.4 ± 7.9% |
| O=C(O)C1CCOCC1 [compound 92, tetrahydro‐2H‐pyran‐4‐carboxylic acid] | 58.7 ± 14.3% |  |
| COC(=O)c1ccccc1-n1cccc1 [compound 628, methyl 2‐(1H‐pyrrol‐1‐yl)benzoate] | 35.1 ± 9.3% |  |
| OCc1cccc(Oc2ccccn2)c1 [compound 630, [3‐(pyrid‐2‐yloxy)phenyl]methanol] | 81.4 ± 5.7% |  |
| O=C(O)C1CCNCC1 [compound 90, piperidine‐4‐carboxylic acid] | 75.1 ± 12.4% |  |
| O=C(O)C1Cc2ccccc2N1 (stereo not drawn) [compound 292, indoline-2-carboxylic acid] | 32.9 ± 9.3% | viability at 500 µM [2]: 32.9 ± 9.3% |
| COC(=O)c1ccc2ncccc2c1 [compound 515, methyl quinoline‐6‐carboxylate] | 59.2 ± 1.4% |  |
| Nc1ccc(C(F)(F)F)cn1 [compound 283, 5‐(trifluoromethyl)pyridin‐2‐amine] | 99.7 ± 14.7% |  |
| Clc1ccsc1 [compound 48, 3‐chlorothiophene] | 108 ± 17.8% |  |
| O=C1CC(C(=O)O)c2ccccc21 (stereo not drawn) [compound 409, 3‐oxoindane‐1‐carboxylic acid] | 119 ± 18.3% |  |
| Cc1ccc(CN)cc1Cl [compound 233, 3‐chloro‐4‐methylbenzylamine] | 27.7 ± 4.2% |  |
| Cc1nc(CC(=O)O)cs1 [compound 243, 2‐(2‐methyl‐1,3‐thiazol‐4‐yl)acetic acid] | 97.4 ± 8.3% |  |
| Cc1nc(C(C)(C)C)cs1 [compound 229, 4‐(tert‐butyl)‐2‐methyl‐1,3‐thiazole] | 94.4 ± 6.3% |  |
| CNCc1ccncc1 [compound 56, N‐methyl‐N‐(4‐pyridinylmethyl)amine] | 86.8 ± 7.8% |  |
| Cc1ccccc1S(N)(=O)=O [compound 355, 2‐methylbenzene‐1‐sulfonamide] | 98.8 ± 16% |  |
| OCC1CCc2ccccc2O1 (stereo not drawn) [compound 299, 3,4‐dihydro‐2H‐chromen‐2‐ylmethanol] | 66.4 ± 16.2% |  |
| CCOC(=O)C1CCNCC1 [compound 245, ethyl piperidine‐4‐carboxylate] | 93.2 ± 7.2% |  |

Like-named read-outs stand apart in the source and are kept apart here.
